The record followed here is article PMC9911399, “Two distinct binding modes provide the RNA-binding protein RbFox with extraordinary sequence specificity”.

Substitutions are numbered along the chain they refer to; changes in the protein carry UniProt numbers. Some of the results follow.

Sequences and labels used below:
B1: AUUUCAA (DNA:RNA)
RNA: GGGAGACCGGAAUUCAGAUUGUCCAUUUCAAUUAAAUCCCGUCGUAGCCACCA
DNA 1: CAATCTGAATTCCGGTCTCCC
DNA 2: TGGTGGCTACGACGGGATT
B2: UGGCAAA (DNA:RNA)
RNA: B1 RNA with A25U, U26G, U27G, U28C, C29A
DNA 1: CAATCTGAATTCCGGTCTCCC
DNA 2: TGGTGGCTACGACGGGATT
B3: CGGAUGU (DNA:RNA)
RNA: GGGAGACCGGAAUUCAGAUUGUCCCGGAUGUUUAAAUCCCGUCGUAGCCACCA
DNA 1: CAATCTGAATTCCGGTCTCCC
DNA 2: TGGTGGCTACGACGGGATT
B4: CGAUUGU (DNA:RNA)
RNA: B3 RNA with G27A, A28U
DNA 1: CAATCTGAATTCCGGTCTCCC
DNA 2: TGGTGGCTACGACGGGATT
B5: AGCGCGC (DNA:RNA)
RNA: B1 RNA with U26G, U27C, U28G, A30G, A31C
DNA 1: CAATCTGAATTCCGGTCTCCC
DNA 2: TGGTGGCTACGACGGGATT
B6: CACUAAG (DNA:RNA)
RNA: B1 RNA with A25C, U26A, U27C, C29A, A31G
DNA 1: CAATCTGAATTCCGGTCTCCC
DNA 2: TGGTGGCTACGACGGGATT
B7: UUCAUAU (DNA:RNA)
RNA: B3 RNA with C25U, G26U, G27C, G30A
DNA 1: CAATCTGAATTCCGGTCTCCC
DNA 2: TGGTGGCTACGACGGGATT
B8: ACAAGGU (DNA:RNA)
RNA: B3 RNA with C25A, G26C, G27A, U29G
DNA 1: CAATCTGAATTCCGGTCTCCC
DNA 2: TGGTGGCTACGACGGGATT
B9: CUCCAUU (DNA:RNA)
RNA: B3 RNA with G26U, G27C, A28C, U29A, G30U
DNA 1: CAATCTGAATTCCGGTCTCCC
DNA 2: TGGTGGCTACGACGGGATT

In the experiment the target is T1, RBFOX1 RRM (Homo sapiens, UniProt Q9NWB1 109-208).
T1 sequence: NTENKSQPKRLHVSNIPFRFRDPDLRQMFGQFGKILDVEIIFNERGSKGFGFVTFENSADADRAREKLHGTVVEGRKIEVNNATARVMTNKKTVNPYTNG
The experiment can be described thus: EMSA; HiTS-Eq, 1 nM pool, 10 min; buffer printed only for the single-RNA assays: 10 mM Tris pH 7.5, 150 mM NaCl, 3.4 mM EDTA, 0.001% NP-40, 30 C. To be noted: tags: His6 N-terminal (pET28a); label: 5' 32P. Summed up:
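Purified RbFox RRM (wild type or mutant) was equilibrated for 10 min in 50 µL with 1 nM of a 5′-radiolabelled pool of RNA with 7 randomized nucleotides, its flanks annealed to DNA oligonucleotides, across increasing protein concentrations. Free RNA was separated by 8% native PAGE, excised, reverse-transcribed, PCR-barcoded and sequenced on an Illumina HiSeq 2500. Relative association constants came from read-count changes of each variant against the control reaction, normalised to the cognate motif.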
Turning to B1, the binding signal is 0.00233 KA relative to UGCAUGU.

As to B2, the binding signal was 0.0111 KA relative to UGCAUGU.

B3: the binding signal is 0.0261 KA relative to UGCAUGU.

B4: the binding signal was 0.0164 KA relative to UGCAUGU.

In the case of B5, the binding signal is 0.0135 KA relative to UGCAUGU.

Consider B6, for which the binding signal was 0.00529 KA relative to UGCAUGU.

B7: the binding signal is 0.00109 KA relative to UGCAUGU.

As to B8, the binding signal was 0.00642 KA relative to UGCAUGU.

Take B9: the binding signal was 0.00386 KA relative to UGCAUGU.
